Test results taken from PubChem BioAssay AID1379 (National Center for Advancing Translational Sciences (NCATS), 2008).
About 560 (0.28%) of roughly 200,000 compounds were called active. Inconclusive results, whose numbers are uncertain, are shown with a selection of clear calls. Calls follow the shape of the dose curve; as a rule, active = well fitted inhibition curve with a large enough effect; inconclusive = small, poorly fitted or top-dose-only effect; inactive = flat fitted curve, though single readings scatter. Potencies of inconclusive entries are left out as doubtful fits.

These compounds were tested against Luciferin 4-monooxygenase (Photuris pensylvanica) (UniProt Q27757) (assay: Counterscreen for Luciferase (Kinase-Glo TM) Inhibition). Conditions: ATP luminescence, 8 min; series mostly up to 38.3 µM; activity change, negative = inhibition: at the top concentration.
Protocol: NCGC Assay Overview: NIH Molecular Libraries Screening Centers Network [MLSCN] NIH Chemical Genomics Center [NCGC] MLSCN Grant: None Luciferase (Kinase-Glo, Promega Corporation) was assayed for its ability to generate light using ATP and luciferin as substrates. The ATP concentration in the assay (10 uM) was within the linear range of enzyme activity for the assay conditions used.
NCGC Assay Protocol Summary: Four uL of substrate mix (final concentration, 50 mM imidazole pH 7.2, 50 mM KCl, 7 mM MgCl2, 10 uM ATP, 0.01% Tween 20, 0.05% BSA) was dispensed into white 1536 well plates. Twenty-three nL of compound was delivered by a pin tool and 2 uL of luciferase detection mix (Kinase-Glo, Promega)) was added. Following 8-minute incubation at ambient temperature, luminescence was measured by a ViewLux (Perkin Elmer) at 5 seconds exposure/plate.
% is scaled to controls: 0 for no effect and ±100 for the full control effect; potency is read from the fitted curve at half-maximal effect; tags tell the direction and shape of the fitted curve.
Also: nearly all actives have a fitted effect of over 60% in size.

SMILES	Potency	activity change, negative = inhibition
Cc1ccc(C(=O)/C=C/Nc2ccccc2C(N)=O)o1	inconclusive [inhibitor, partial curve]	–
CO[C@H]1C=CO[C@@]2(C)Oc3c(C)c(O)c4c(O)c(c(C=NN5CCN(C)CC5)c(O)c4c3C2=O)NC(=O)C(C)=CC=C[C@H](C)[C@H](O)[C@@H](C)[C@@H](O)[C@@H](C)[C@H](OC(C)=O)[C@@H]1C	inconclusive [inhibitor, single point]	–
CSc1nc(N)c2ncn([C@@H]3O[C@H](COP(=O)(O)OP(=O)(O)OP(=O)(O)O)[C@H](O)[C@H]3O)c2n1	inconclusive [inhibitor, partial curve]	–
N/C(=N\OC(=O)c1ccccc1Cl)c1ccccc1	inconclusive [inhibitor, partial curve]	–
Cc1ccc(NC(=O)c2ccccc2F)nc1	inconclusive [inhibitor, single point]	–
CCOC(=O)c1sc(NC(=O)c2cccs2)nc1C	inconclusive [inhibitor, partial curve]	–
O=C(c1ccco1)[C@@H]1[C@@H]2C(=O)N(c3ccc(F)cc3)C(=O)[C@@H]2C2c3ccccc3C=CN21 (stereo not given in full)	–	inactive: -11.6%
CCCCCC(=O)NNC1=NCC(Cc2cccc(Cl)c2)S1 (stereo not given)	–	inactive: 2.28%
CC(C)NC(=O)/C=C/C(=O)O	–	inactive: -2.54%
CCCCN(C)C(=O)c1cc2cc3ccc(OC)cc3nc2s1	inconclusive [inhibitor, partial curve]	–
O=C(Nc1ccc2c(c1)nc1n2CCSC1)c1ccco1	active: 10 µM	–
O=C(N/N=C/c1cccs1)c1n[nH]c2c1CCC2	inconclusive [inhibitor, partial curve]	–
O=C(Nc1ccccc1C(=O)N/N=C/c1ccncc1)c1ccccc1	active: 1.78 µM	–
Cc1cccn2cc(-c3cc4ccccc4oc3=O)nc12	inconclusive [inhibitor, partial curve]	–
O=C(N1CCN(c2ccccc2)CC1)C12CC3CC(CC(C3)C1)C2	–	inactive: -0.751%
CC(C)Cn1c2nc3ccccc3nc2c2c(=O)n(CCN3CCOCC3)cnc21	–	inactive: 0.828%
Cc1cccn2c1nc(=S)n2C(=O)c1ccco1	inconclusive [inhibitor, single point]	–
CC1=NN(c2ccccc2)C(=O)/C1=C/C=C/c1ccc(N(C)C)cc1	active: 12.6 µM	–
CNc1nc(N/N=C/c2ccc([N+](=O)[O-])cc2)nc(Nc2ccccc2)n1	–	inactive: -0.803%
COc1ccccc1C(=O)N/C(=C/c1ccc(Br)cc1)C(=O)N1CCCC1	–	inactive: 2.07%
